Data on 17 molecules can be found in patent publication US20090155268A1 (VEGENICS, published 2009).

Experiment [1] addresses T1, VEGF-C 109 (minimal VEGF-C fragment with 109 residues) (radiolabelled (printed as tritiated; ligand solution may be supernatant of metabolically labeled 293T cells)).
T1 chain: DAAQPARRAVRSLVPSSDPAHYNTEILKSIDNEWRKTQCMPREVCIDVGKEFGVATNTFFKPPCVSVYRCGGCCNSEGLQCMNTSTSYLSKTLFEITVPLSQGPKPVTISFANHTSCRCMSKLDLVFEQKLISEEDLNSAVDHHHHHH
The experiment is described as follows: precipitation of radiolabelled VEGF-C 109 by the Fc fusion with protein A sepharose, SDS-PAGE autoradiography. As to the method: (§1) Either Tritiated VEGF-A 109 or VEGF-C 109 was used in a given binding experiment. Ligand in solution was precipitated by mixing 175 μl of ligand solution with 100 μl binding mix at 4° C. overnight, with agitation. The ligand solution may be the supernatant of metabolically labeled 293T cells. The binding mixes used for the receptor binding analysis were as follows: for VEGFR-1 binding assays, the binding mix was phosphate buffered saline (PBS) containing 1.5% BSA, 0.06% Tween 20, 3 μg/ml heparin and 400 ng/ml VEGFR-1-Fc fusion protein (100 μl of this binding mix was added to 200 μl of ligand solution). For VEGFR-2 binding assays, the binding mix was 82% conditioned cell supernatant from 293T cells transiently expressing VEGFR-2-Fc fusion protein in mixture with 18% of a PBS solution that contained 5% BSA, 0.2% Tween 20, and 10 μg/ml heparin (250 μl of binding mix was added to 200 μl of ligand solution). For VEGFR-3 binding assays, the binding mix was 82% conditioned cell supernatant from 293T cells transiently expressing VEGFR-3-Fc fusion protein, 18% of PBS containing 5% BSA, 0.2% Tween 20, and 10 μg/ml heparin (250 μl of binding mix was added to 200 μl of ligand solution). To collect precipitated ligand, 50 μl of a 30% protein A sepharose (PAS, Pharmacia) slurry in PBS was added and incubated under agitation for at least 1.5 hr at 4° C. Standard buffer was added to each immunoprecipitation sample and boiled for 5 minutes at 95° C. during which the immunopreciptated proteins become dissociated from the protein A sepharose. After centrifugation, 10 μl of each sample was analyzed on 15% SDS-PAGE under reducing conditions. The gels were dried and exposed for either 12 hours on phosphorimager plates or 4 weeks on X-ray film.

Experiment [2] deals with T2, VEGF-A 109 (minimal VEGF-A fragment with 109 residues) (radiolabelled (printed as tritiated; ligand solution may be supernatant of metabolically labeled 293T cells)).
T2 chain: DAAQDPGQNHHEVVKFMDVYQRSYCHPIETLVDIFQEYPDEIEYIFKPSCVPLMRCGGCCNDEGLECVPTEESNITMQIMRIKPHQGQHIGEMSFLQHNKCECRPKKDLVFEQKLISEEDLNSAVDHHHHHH
The experiment can be described thus: precipitation of radiolabelled VEGF-A 109 by the Fc fusion with protein A sepharose, SDS-PAGE autoradiography. As to the method: as §1

B1: R-3 D (VEGFR-3 fragment / human IgG Fc fusion) (Fc fusion)
chain: YSMTPPTLNITEESHVIDTGDSLSISCRGQHPLEWAWPGAQEAPATGDKDSEDTGVVRDCEGTDARPYCKVLLLHEVHANDTGSYVCYYKYIKARIEGTTAASSYVFVRDFEQPFINKPDTLLVNRKDAMWVPCLVSIPGLNVTLRSQSSVLWPDGQEVVWDDRRGMLVSTPLLHDALYLQCETTWGDQDFLSNPFLVHITGDPIEGRGGGGGD[gap - human IgG1 Fc with changes]
notes: Range starts at position 1 (native signal peptide in the entry); not shown: human IgG Fc fragment fused to the C-terminus
In the case of B1, the binding result in experiment [1] was “binds”.

B2: R-3 B with CD33 Signal Peptide (VEGFR-3 fragment / human IgG Fc fusion) (Fc fusion)
chain: MDKLPFINKPDTLLVNRKDAMWVPCLVSIPGLNVTLRSQSSVLWPDGQEVVWDDRRGMLVSTPLLHDALYLQCETTWGDQDFLSNPFLVHITGDPIEGRGGGGGD[gap - human IgG1 Fc with changes]
notes: CD33 signal peptide in the expression construct; not shown: human IgG Fc fragment fused to the C-terminus
For B2, the binding result in experiment [1] is “no binding”.

B3: R-2 F with CD33 Signal Peptide (VEGFR-2 fragment / human IgG Fc fusion) (Fc fusion)
chain: MDKLASGTLEDGRGSLPSVSLDLPRLSIQKDILTIKANTTLQITCRGQRDLDWLWPNNQSGSEQRVEVTECSDGLFCKTLTIPKVIGNDTGAYKCFYRETDLASVIYVYVQDPIEGRGGGGGD[gap - human IgG1 Fc with changes]
notes: as for B2
Take B3: the binding result in experiment [1] and in experiment [2] was “no binding” each time.

B4: R-3 H (VEGFR-3 fragment / human IgG Fc fusion) (Fc fusion)
chain: YSMTPPTLNITEESHVIDTGDSLSISCRGQHPLEWAWPGAQEAPATGDKDSEDTGVVRDCEGTDARPYCKVLLLHEVHANDTGSYVCYYKYIKARIEGTTAASSYVFVRDPIEGRGGGGGD[gap - human IgG1 Fc with changes]
notes: as for B1
Take B4: the binding result in experiment [1] is on record as “no binding”.

B5: R-3 J (VEGFR-3 domain 2, Ig domain 1 deleted / human IgG Fc fusion) (Fc fusion)
chain: YSMTPPTLNITEESHVRDFEQPFINKPDTLLVNRKDAMWVPCLVSIPGLNVTLRSQSSVLWPDGQEVVWDDRRGMLVSTPLLHDALYLQCETTWGDQDFLSNPFLVHITGNELYDIQLLPRKSLELLVGEKDPIEGRGGGGGD[gap - human IgG1 Fc with changes]
notes: as for B1
Take B5: the binding result in experiment [1] is “no binding”.

B6: R-2 A with CD33 Signal Peptide (VEGFR-2 D1-3 / human IgG Fc fusion) (Fc fusion)
chain: MDKLASGSLPSVSLDLPRLSIQKDILTIKANTTLQITCRGQRDLDWLWPNNQSGSEQRVEVTECSDGLFCKTLTIPKVIGNDTGAYKCFYRETDLASVIYVYVQDYRSPFIASVSDQHGVVYITENKNKTVVIPCLGSISNLNVSLCARYPEKRFVPDGNRISWDSKKGFTIPSYMISYAGMVFCEAKINDESYQSIMYIVVVVGYRIYDVVLSPSHGIELSVGEKLVLNCTARTELNVGIDFNWEYPSSKHQHKKLVNRDLKTQSGSEMKKFLSTLTIDGVTRSDQGLYTCAASSGLMTKKNSTFVRVHEDPIEGRGGGGGD[gap - human IgG1 Fc with changes]
notes: Used as conditioned medium of 293T cells; Heterologous CD33 signal peptide in the expression construct; also called VEGFR-2/IgG D1-3 construct; not shown: human IgG Fc fragment fused to the C-terminus (Signal pIgplus vector)
As for B6, the binding result in experiment [1] and in experiment [2] was “binds” in each case.

B7: R-2 H with CD33 Signal Peptide (VEGFR-2 fragment / human IgG Fc fusion) (Fc fusion)
chain: MDKLASVQDYRSPFIASVSDQHGVVYITENKNKTVVIPCLGSISNLNVSLCARYPEKRFVPDGNRISWDSKKGFTIPSYMISYAGMVFCEAKINDESYQSIMYIVVVVGDPIEGRGGGGGD[gap - human IgG1 Fc with changes]
notes: as for B2
B7: the values for the binding result in experiment [1] and in experiment [2] were “binds” and “no binding”, respectively.

B8: R-2 L with CD33 Signal Peptide (VEGFR-2 fragment / human IgG Fc fusion) (Fc fusion)
chain: MDKLASYRIYDVVLSPSHGIELSVGEKLVLNCTARTELNVGIDFNWEYPSSKHQHKKLVNRDLKTQSGSEMKKFLSTLTIDGVTRSDQGLYTCAASSGLMTKKNSTFVRVHEDPIEGRGGGGGD[gap - human IgG1 Fc with changes]
notes: as for B2
Consider B8, for which the binding result in experiment [1] and in experiment [2] was “no binding” throughout.

B9: R-2 I with CD33 Signal Peptide (VEGFR-2 fragment / human IgG Fc fusion) (Fc fusion)
chain: MDKLASVQDYRSPFIASVSDQHGVVYITENKNKTVVIPCLGSISNLNVSLCARYPEKRFVPDGNRISWDSKKGFTIPSYMISYAGMVFCEAKINDESYQSIMYIVVVVGYRIYDVDPIEGRGGGGGD[gap - human IgG1 Fc with changes]
notes: as for B2
On to B9, for which the binding result in experiment [2] was “no binding”.

B10: R-3 I (VEGFR-3 domains 2 and 3, Ig domain 1 deleted / human IgG Fc fusion) (Fc fusion)
chain: YSMTPPTLNITEESHVRDFEQPFINKPDTLLVNRKDAMWVPCLVSIPGLNVTLRSQSSVLWPDGQEVVWDDRRGMLVSTPLLHDALYLQCETTWGDQDFLSNPFLVHITGNELYDIQLLPRKSLELLVGEKLVLNCTVWAEFNSGVTFDWDYPGKQAERGKWVPERRSQQTHTELSSILTIHNVSQHDLGSYVCKANNGIQRFRESTEVIVHEDPIEGRGGGGGD[gap - human IgG1 Fc with changes]
notes: as for B1
In the case of B10, the binding result in experiment [1] is reported as “no binding”.

B11: R-2 B with CD33 Signal Peptide (VEGFR-2 fragment / human IgG Fc fusion) (Fc fusion)
chain: MDKLASGTLEDGRGSLPSVSLDLPRLSIQKDILTIKANTTLQITCRGQRDLDWLWPNNQSGSEQRVEVTECSDGLFCKTLTIPKVIGNDTGAYKCFYRETDLASVIYVYVQDYRSPFIASVSDQHGVVYITENKNKTVVIPCLGSISNLNVSLCARYPEKRFVPDGNRISWDSKKGFTIPSYMISYAGMVFCEAKINDESYQSIMYIVVVVGDPIEGRGGGGGD[gap - human IgG1 Fc with changes]
notes: as for B2
On to B11, for which the binding result in experiment [1] and in experiment [2] was “no binding” in each case.

B12: R-2 K with CD33 Signal Peptide (VEGFR-2 fragment / human IgG Fc fusion) (Fc fusion)
chain: MDKLASVQDYRSPFIASVSDQHGVVYITENKNKTVVIPCLGSISNLNVSLCARYPEKRFVPDGNRISWDSKKGFTIPSYMISYAGMVFCEAKINDESYQSIMYIVVVVGYRIYDVVLSPSHGIELSVGEKDPIEGRGGGGGD[gap - human IgG1 Fc with changes]
notes: as for B2
Consider B12, for which the binding result in experiment [1] and in experiment [2] was “no binding” throughout.

B13: R-3 K (VEGFR-3 fragment, Ig domain 1 deleted / human IgG Fc fusion) (Fc fusion)
chain: YSMTPPTLNITEESHVRDFEQPFINKPDTLLVNRKDAMWVPCLVSIPGLNVTLRSQSSVLWPDGQEVVWDDRRGMLVSTPLLHDALYLQCETTWGDQDFLSNPFLVHITGNELADPIEGRGGGGGD[gap - human IgG1 Fc with changes]
notes: as for B1
B13: the binding result in experiment [1] is listed as “no binding”.

B14: R-3 C (VEGFR-3 fragment / human IgG Fc fusion) (Fc fusion)
chain: YSMTPPTLNITEESHVIDTGDSLSISCRGQHPLEWAWPGAQEAPATGDKDSEDTGVVRDCEGTDARPYCKVLLLHEVHANDTGSYVCYYKYIKARIEGTTAASSYVFVRDFEQPFINKPDTLLVNRKDAMWVPCLVSIPGLNVTLRSQSSVLWPDGQEVVWDDRRGMLVSTPLLHDALYLQCETTWGDQDFLSNPFLVHITGNELADPIEGRGGGGGD[gap - human IgG1 Fc with changes]
notes: Range starts at position 1, so the native signal peptide is in the entry; not shown: human IgG Fc fragment fused to the C-terminus
B14: in experiment [1], the binding result is on record as “binds”.

B15: R-3 G (VEGFR-3 D1-3 / human IgG Fc fusion) (Fc fusion)
chain: YSMTPPTLNITEESHVIDTGDSLSISCRGQHPLEWAWPGAQEAPATGDKDSEDTGVVRDCEGTDARPYCKVLLLHEVHANDTGSYVCYYKYIKARIEGTTAASSYVFVRDFEQPFINKPDTLLVNRKDAMWVPCLVSIPGLNVTLRSQSSVLWPDGQEVVWDDRRGMLVSTPLLHDALYLQCETTWGDQDFLSNPFLVHITGNELYDIQLLPRKSLELLVGEKLVLNCTVWAEFNSGVTFDWDYPGKQAERGKWVPERRSQQTHTELSSILTIHNVSQHDLGSYVCKANNGIQRFRESTEVIVHEDPIEGRGGGGGD[gap - human IgG1 Fc with changes]
notes: as for B1
On to B15, for which the binding result in experiment [1] is on record as “binds”.

B16: R-2 J with CD33 Signal Peptide (VEGFR-2 fragment / human IgG Fc fusion) (Fc fusion)
chain: MDKLASVQDYRSPFIASVSDQHGVVYITENKNKTVVIPCLGSISNLNVSLCARYPEKRFVPDGNRISWDSKKGFTIPSYMISYAGMVFCEAKINDESYQSIMYIVVVVGYRIYDVVLSPSHDPIEGRGGGGGD[gap - human IgG1 Fc with changes]
notes: as for B2
For the molecule B16, the binding result in experiment [2] is “no binding”.

B17: R-2 G with CD33 Signal Peptide (VEGFR-2 fragment / human IgG Fc fusion) (Fc fusion)
chain: MDKLASVQDYRSPFIASVSDQHGVVYITENKNKTVVIPCLGSISNLNVSLCARYPEKRFVPDGNRISWDSKKGFTIPSYMISYAGMVFCEAKINDESYQSIMYIVVVVGYRIYDVVLSPSHGIELSVGEKLVLNCTARTELNVGIDFNWEYPSSKHQHKKLVNRDLKTQSGSEMKKFLSTLTIDGVTRSDQGLYTCAASSGLMTKKNSTFVRVHEDPIEGRGGGGGD[gap - human IgG1 Fc with changes]
notes: as for B2
Take B17: the binding result in experiment [1] and in experiment [2] was “binds” each time.
